# According to paper PMC4336329 (PLoS ONE, 2015):
# The whole screen tested about 310,000 compounds, of which about 2,200 (0.71%) showed an effect of 50% or more. Effects have a minus sign here. Some of the results follow.
# Biological target: human ether-à-go-go-related gene (hERG) potassium channel (human, UniProt Q12809)
# Assay: primary screen, population patch clamp on CHO cells stably expressing hERG
# Chain of human ether-à-go-go-related gene (hERG) potassium channel (Q12809 whole entry, looked up): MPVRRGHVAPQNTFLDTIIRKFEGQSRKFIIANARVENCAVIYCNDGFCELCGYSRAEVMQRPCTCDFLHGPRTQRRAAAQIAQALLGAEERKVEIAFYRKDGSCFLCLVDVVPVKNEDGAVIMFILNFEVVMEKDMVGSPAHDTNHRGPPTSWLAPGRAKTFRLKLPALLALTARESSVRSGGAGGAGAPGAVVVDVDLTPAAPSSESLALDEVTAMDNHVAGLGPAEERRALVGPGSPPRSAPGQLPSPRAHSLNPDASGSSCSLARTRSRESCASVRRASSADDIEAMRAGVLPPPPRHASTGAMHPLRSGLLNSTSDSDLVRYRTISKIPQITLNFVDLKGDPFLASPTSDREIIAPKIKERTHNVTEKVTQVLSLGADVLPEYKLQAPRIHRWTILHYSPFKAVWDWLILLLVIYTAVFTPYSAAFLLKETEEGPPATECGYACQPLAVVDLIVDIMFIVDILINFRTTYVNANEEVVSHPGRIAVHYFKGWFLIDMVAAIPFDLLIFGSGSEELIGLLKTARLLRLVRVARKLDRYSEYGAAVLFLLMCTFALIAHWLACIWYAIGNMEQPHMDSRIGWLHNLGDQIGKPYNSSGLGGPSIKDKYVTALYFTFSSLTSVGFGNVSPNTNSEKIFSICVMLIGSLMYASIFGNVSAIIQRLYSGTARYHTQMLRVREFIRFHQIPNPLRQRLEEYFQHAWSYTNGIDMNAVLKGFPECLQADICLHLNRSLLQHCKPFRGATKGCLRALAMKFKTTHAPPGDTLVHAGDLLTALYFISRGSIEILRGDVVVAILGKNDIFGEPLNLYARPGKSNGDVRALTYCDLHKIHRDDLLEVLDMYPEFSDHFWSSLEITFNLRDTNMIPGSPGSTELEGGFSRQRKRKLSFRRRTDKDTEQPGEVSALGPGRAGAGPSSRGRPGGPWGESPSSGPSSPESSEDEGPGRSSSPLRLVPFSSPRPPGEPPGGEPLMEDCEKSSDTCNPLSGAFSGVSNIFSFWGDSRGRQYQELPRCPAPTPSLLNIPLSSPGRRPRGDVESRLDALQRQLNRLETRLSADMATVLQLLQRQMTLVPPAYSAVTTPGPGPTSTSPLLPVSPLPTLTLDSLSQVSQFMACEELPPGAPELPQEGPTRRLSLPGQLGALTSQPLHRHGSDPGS
row,Compound,"hERG current change (%, negative = inhibition) at 1uM [%]"
1,C#CCOCCOCCOCCNc1nc(N2CCN(C(=O)[C@H](CCC(=O)O)n3cc(C(N)CC(C)C)nn3)CC2)nc(N2CCN(C(=O)[C@H](Cc3cc4ccccc4[nH]3)n3cc(C(N)CC(C)C)nn3)CC2)n1.Cl (stereo partly shown),7.57
2,O=C(Nc1ccc(C2=NCCN2)cc1)c1ccc(C(=O)Nc2ccc(C3=NCCN3)cc2)c([N+](=O)[O-])c1,8.94
3,O=C(NC1CC1)C(=O)c1c[nH]c2ccccc12,24.9
4,Cc1onc(-c2c(Cl)cccc2Cl)c1C(=O)NN1CCCCCC1,5.41
5,Cc1cc(NC(=O)CCC(=O)N(Cc2ccco2)C2(C(=O)NC3CCCC3)CCC(C)CC2)no1 (stereo not shown),13.3
6,Br.CC12CN3CC(C)(CN(C1)C3c1cc3ccccc3[nH]1)C2=O (stereo not shown),-7.45
7,COc1ccccc1N1CCN(C(=O)C2=CC=CN3CCS(=O)(=O)N=C23)CC1,13.7
8,Cc1cccc(CC(=O)Nc2ccc(C(=O)N3CCOCC3)cc2)c1,7.84
9,CCOC(=O)c1ccc(NC(=O)CSc2nnc(CC)o2)cc1,5.8
10,Cc1cc(C(=O)N2CCN(Cc3ccc4c(c3)OCO4)CC2)cs1,-21.8
11,S=c1[nH]nc(COc2ccc3ccccc3c2)o1,11.2
12,CCn1c(SCC(=O)N2CCCC2)nc2ccccc2c1=O,-7.76
13,O=C(COC(=O)c1ccc(O)cc1O)Nc1nnc(-c2ccccc2)o1,12
14,Cc1noc(C)c1COc1ccccc1C(=O)N(C)Cc1ccc(C(C)(C)C)cc1,1.72
15,Cc1cccc(NC(=O)c2cc(S(=O)(=O)N3CCC4(CC3)OCCO4)ccc2F)c1,4.74
16,Cc1ccc(C(=O)Nc2nc3ccc(S(C)(=O)=O)cc3s2)o1,1.91
17,O=C(CSc1nnnn1-c1ccccc1Cl)Nc1ccc2c(c1)OCCO2,14.1
18,Cc1ccc2nc(NCCC(=O)O)nc(-c3ccccc3)c2c1,12
19,COc1ccc(CN2CCCC(N3CCN(c4cccc(Cl)c4)CC3)C2)cc1OC (stereo not shown),-2.99
20,CCn1c(=O)oc2cc(NC(=O)CCl)ccc21,15.9
21,Cc1nnc2sc(SCC(=O)Nc3cccc(Cl)c3)nn2c1=O,-3.42
22,Cc1cccc(C)c1NC(=O)CSc1ncnc2nc[nH]c12,9.36

row,Compound,"hERG current change (%, negative = inhibition) at 1uM [%]"
1,CNC(=O)c1ccc(C)c(NC(=O)C2=C(C)OCCS2)c1,17.6
2,O=C(Cc1coc2ccc3ccccc3c12)Nc1nccs1,1.22
3,COC(=O)CSc1nc2ccccc2c(=O)n1C,5.29
4,O=C(COc1ccccc1)NC1CCCCC1,17.2
5,COc1cc(-c2nnc3sc(-c4ccncc4)nn23)cc(OC)c1OC,3.33
6,COc1cc(/C=C/C(=O)OCC(=O)c2c(N)n(C)c(=O)n(C)c2=O)ccc1O,4.57
7,CCOC(=O)CSc1nc2c(c(=O)[nH]c(=O)n2C)n1CCCc1ccccc1,1.75
8,Cc1ccc(S(=O)(=O)N(C(=N)N)c2nc(N(C)C)nc(N(C)C)n2)cc1,7.68
9,COc1cccc(C(=O)NCCS(=O)(=O)NC(C)CCc2ccccc2)c1 (stereo not shown),-0.964
10,COc1ccccc1C(=O)COC(=O)c1cc([N+](=O)[O-])ccc1N1CCOCC1,1.57
11,CCN(CC)CCCn1c(C)cc2c(c1=O)C(c1ccccc1)C(C#N)=C(N)O2 (stereo not shown),0.132
12,Fc1ccc(N2CCN(c3ncnc4nc[nH]c34)CC2)cc1,5.57
13,Nc1ccccc1C(=O)OCCOc1ccccc1,9.85
14,COCCn1c(=N)c(S(=O)(=O)c2ccc(F)cc2)cc2c(=O)n3cccc(C)c3nc21,8.04
15,O=C(Nc1ccccc1O)c1ccc2c(c1)C(=O)N(Cc1ccco1)C2=O,10.8
16,CNc1nc(N)c([N+](=O)[O-])c(Nc2cccc(Cl)c2)n1,12.8
17,O=C(NCc1ccccc1CN1CCCC1)c1cccc(S(=O)(=O)N2CCCC2)c1,-15.4
18,C/C(=N\NC(=S)NC1CCCCC1)c1cccc(Br)c1,9.71
19,COc1cccc(CN2CCC(n3nccc3NC(=O)C3CC3)CC2)c1,-41.3
20,CCOc1ccccc1N(CC(=O)N/N=C(\C)c1cccc(Br)c1)S(C)(=O)=O,4.68
21,Cl.NCCCNc1ccc([N+](=O)[O-])cc1C(F)(F)F,12.7
